Results published in PMC4336329 (PLoS ONE, 2015).
Among all 310,000 compounds or so, about 14,000 (4.5%) showed an effect of 50% or more. Effects have a minus sign here. This is one part of the list.
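Also: peak tail current of the secondary pulse compared with the same well before compound.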

What follows are compounds tested against human ether-à-go-go-related gene (hERG) potassium channel (human, UniProt Q12809) (assay: primary screen, population patch clamp on CHO cells stably expressing hERG).
Sequence of human ether-à-go-go-related gene (hERG) potassium channel (Q12809 whole entry, looked up): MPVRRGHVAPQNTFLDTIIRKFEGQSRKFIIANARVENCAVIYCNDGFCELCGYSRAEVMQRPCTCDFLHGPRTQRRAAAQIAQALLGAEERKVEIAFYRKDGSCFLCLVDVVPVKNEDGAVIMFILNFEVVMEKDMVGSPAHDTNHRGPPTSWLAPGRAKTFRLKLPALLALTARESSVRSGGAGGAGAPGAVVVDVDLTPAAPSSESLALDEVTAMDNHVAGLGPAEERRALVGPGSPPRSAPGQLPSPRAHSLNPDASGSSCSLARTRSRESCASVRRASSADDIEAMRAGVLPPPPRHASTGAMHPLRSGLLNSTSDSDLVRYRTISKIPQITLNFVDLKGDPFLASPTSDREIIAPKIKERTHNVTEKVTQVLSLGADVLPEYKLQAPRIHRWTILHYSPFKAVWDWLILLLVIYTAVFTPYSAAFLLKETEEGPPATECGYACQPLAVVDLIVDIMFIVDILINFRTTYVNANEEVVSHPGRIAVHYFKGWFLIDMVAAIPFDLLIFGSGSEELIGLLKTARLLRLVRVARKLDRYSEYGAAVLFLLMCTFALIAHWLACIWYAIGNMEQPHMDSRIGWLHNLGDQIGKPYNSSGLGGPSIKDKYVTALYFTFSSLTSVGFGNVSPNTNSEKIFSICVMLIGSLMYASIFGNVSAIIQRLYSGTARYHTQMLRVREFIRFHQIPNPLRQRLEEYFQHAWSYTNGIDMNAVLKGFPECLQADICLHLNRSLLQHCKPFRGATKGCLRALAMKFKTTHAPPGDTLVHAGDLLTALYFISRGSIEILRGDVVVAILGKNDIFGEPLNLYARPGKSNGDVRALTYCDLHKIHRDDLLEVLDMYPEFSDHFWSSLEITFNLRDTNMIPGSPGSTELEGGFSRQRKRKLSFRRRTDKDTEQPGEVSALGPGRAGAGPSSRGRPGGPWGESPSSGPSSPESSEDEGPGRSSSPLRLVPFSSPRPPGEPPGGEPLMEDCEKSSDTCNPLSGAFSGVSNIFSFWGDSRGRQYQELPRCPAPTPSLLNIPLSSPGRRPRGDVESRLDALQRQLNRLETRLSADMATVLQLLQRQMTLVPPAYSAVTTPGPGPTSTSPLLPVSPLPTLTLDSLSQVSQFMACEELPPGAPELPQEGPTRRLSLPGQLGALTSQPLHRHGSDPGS
With `Cn1c(CCNC(=O)c2ccco2)nc2cc(NC(=O)c3ccccc3Cl)ccc21` the “hERG current change (%, negative = inhibition) at 10uM” value was 1.79%.
`CCCCOc1ccc(-c2c(C#N)c(N)nc(SCC(N)=O)c2C#N)cc1` was tested, and the “hERG current change (%, negative = inhibition) at 10uM” value was -4.81%.
For `O=C(Cn1nc(-c2ccccc2)ccc1=O)NCCN1CCN(c2cccc(Cl)c2)CC1`, the “hERG current change (%, negative = inhibition) at 10uM” value was -24.4%.
With `Cc1ccc(NC(=S)Nc2ccc(OC(F)F)c(Cl)c2)cc1Cl` the “hERG current change (%, negative = inhibition) at 10uM” value was 16.5%.
`O=C(Cn1nc(C(F)(F)F)c2c1CCC2)N1CCN(c2ccccc2)CC1` was tested, and the “hERG current change (%, negative = inhibition) at 10uM” value was -18.7%.
`C/C(Cn1cnc([N+](=O)[O-])n1)=N\NC(=O)c1cccc(F)c1` was tested, and the “hERG current change (%, negative = inhibition) at 10uM” value was 6.43%.
In the case of `CCc1cccc(NC(=O)c2ccc(Cn3nc(C)cc3C)o2)c1`, the “hERG current change (%, negative = inhibition) at 10uM” value is reported as -24.6%.
With `CCN=C1S/C(=C\c2cc(OCC)c(O)cc2Br)C(=O)N1CC` the “hERG current change (%, negative = inhibition) at 10uM” value was 24.1%.
In the case of `CC(/C=N\N1CCN(Cc2ccc(C)cc2)CC1)=C\c1ccccc1`, the “hERG current change (%, negative = inhibition) at 10uM” value is reported as 9.71%.
`CCOc1ccc(NC(=S)N(CCc2c(C)[nH]c3ccccc23)Cc2cccnc2)cc1` was tested, and the “hERG current change (%, negative = inhibition) at 10uM” value was -24.7%.
`C#C[C@]1(OC(C)=O)CCC2C3CCC4=CC(=O)CC[C@@H]4C3CC[C@@]21C` (some centres unmarked) was tested, and the “hERG current change (%, negative = inhibition) at 10uM” value was -10.8%.
`CCN1CCn2c3c(c4cc(Cl)ccc42)CCCC31.Cl` (centres unmarked) was tested, and the “hERG current change (%, negative = inhibition) at 10uM” value was -39.1%.
For `Cc1ccc(C)n1-c1nn(S(=O)(=O)c2cccc(C(F)(F)F)c2)c2cccc(F)c12`, the “hERG current change (%, negative = inhibition) at 10uM” value was -4.23%.
With `COc1cc(NC(=O)CN(C)S(=O)(=O)c2ccc(C)cc2)cc(OC)c1` the “hERG current change (%, negative = inhibition) at 10uM” value was -19.9%.
`CCOC(=O)c1[nH]n(-c2ccc(Cl)cc2)c(=O)c1C` was tested, and the “hERG current change (%, negative = inhibition) at 10uM” value was -4.62%.
In the case of `CC(=O)C1=C(c2ccccc2)NC(=O)NC1c1cccs1` (centres unmarked), the “hERG current change (%, negative = inhibition) at 10uM” value is reported as 17.1%.
In the case of `CCc1ccc(OCC(O)CN2CCN(c3ccccc3)CC2)cc1.Cl` (centres unmarked), the “hERG current change (%, negative = inhibition) at 10uM” value is reported as -60.3%.
For `CCc1cccc(C)c1NC(=O)COC(=O)Cn1c(C)csc1=O`, the “hERG current change (%, negative = inhibition) at 10uM” value was 17.1%.
For `Cc1ccc(CNn2cn[nH]c2=S)cc1`, the “hERG current change (%, negative = inhibition) at 10uM” value was 17.3%.
With `Fc1ccc(CNCCC(Cc2ccccc2)c2ccco2)cc1` (centres unmarked) the “hERG current change (%, negative = inhibition) at 10uM” value was -54.3%.
In the case of `Cc1ccc(NS(=O)(=O)c2ccc3[nH]c(=O)sc3c2)cc1`, the “hERG current change (%, negative = inhibition) at 10uM” value is reported as 2.03%.
In the case of `COc1ccccc1N(CCC#N)C(=O)CSc1nc(-c2ccccc2)cn1N`, the “hERG current change (%, negative = inhibition) at 10uM” value is reported as 3.14%.
In the case of `CC(=O)Nc1ccc(S(=O)(=O)NC(C(=O)O)C2=CCC=CC2)cc1` (centres unmarked), the “hERG current change (%, negative = inhibition) at 10uM” value is reported as 16.8%.
With `CC1=NN2C(=N)/C(=C\c3cc(C)n(-c4cccc(C)c4)c3C)C(=O)N=C2S1` the “hERG current change (%, negative = inhibition) at 10uM” value was 11.6%.
`Cc1c(N2C(=O)/C(=C/c3cccc4ccccc34)SC2=S)c(=O)n(-c2ccccc2)n1C` was tested, and the “hERG current change (%, negative = inhibition) at 10uM” value was 2.36%.
For `Fc1ccc(/C=C/c2nnc(-c3cccs3)o2)cc1`, the “hERG current change (%, negative = inhibition) at 10uM” value was 16.7%.
`COc1ccccc1N(C)S(=O)(=O)c1ccc(C(=O)OCC(=O)c2c[nH]c3ccccc23)cc1` was tested, and the “hERG current change (%, negative = inhibition) at 10uM” value was 19.5%.
In the case of `CCC(C)NC(=O)CC(NS(=O)(=O)c1ccc(NC(C)=O)cc1)C(C)C` (centres unmarked), the “hERG current change (%, negative = inhibition) at 10uM” value is reported as 21.8%.
`N#Cc1c(N2CCN(C(=O)c3ccccc3Cl)CC2)nc(-c2ccccc2)c2c1CCCC2` was tested, and the “hERG current change (%, negative = inhibition) at 10uM” value was 17.6%.
With `CC(=O)Oc1ccc(C(=O)Nc2ccc(S(=O)(=O)NCC3CCCO3)cc2)cc1` (centres unmarked) the “hERG current change (%, negative = inhibition) at 10uM” value was 19.4%.
`O=C(COC(=O)/C=C/c1cccs1)Nc1ccc(F)cc1` was tested, and the “hERG current change (%, negative = inhibition) at 10uM” value was 7.9%.
With `O=C(COc1cc2oc(=O)c3c(c2cc1Cl)CCC3)Nc1cccnc1` the “hERG current change (%, negative = inhibition) at 10uM” value was 6.03%.
With `c1ccc(SCc2nc(-c3cccnc3)no2)cc1` the “hERG current change (%, negative = inhibition) at 10uM” value was -6.39%.
`CCCn1nnnc1SCC(=O)N(C(C)C)C(C)C` was tested, and the “hERG current change (%, negative = inhibition) at 10uM” value was 11.8%.
With `Cc1c(C)c2ccc(OCC(=O)N3CCN(c4ccc(F)cc4)CC3)c(C)c2oc1=O` the “hERG current change (%, negative = inhibition) at 10uM” value was 2.26%.
In the case of `Cc1cc2nc(CCN(C(=S)NCC3CCCO3)C3CCCC3)[nH]c2cc1C` (centres unmarked), the “hERG current change (%, negative = inhibition) at 10uM” value is reported as -33.2%.
In the case of `CCCS(=O)(=O)N1CCN(Cc2c[nH]c3ccccc23)CC1.O=C(O)C(=O)O`, the “hERG current change (%, negative = inhibition) at 10uM” value is reported as -18.3%.
In the case of `O=c1[nH]cnc2scc(-c3ccsc3)c12`, the “hERG current change (%, negative = inhibition) at 10uM” value is reported as -1.7%.
With `COc1ccc(/C=C/C(=O)NCCOc2ccccc2OC)cc1` the “hERG current change (%, negative = inhibition) at 10uM” value was -13.6%.
With `CN(c1ccc(C(=O)N2CCCCC2)cc1)S(=O)(=O)c1cccs1` the “hERG current change (%, negative = inhibition) at 10uM” value was 8.46%.
With `CCCCN1C(=O)/C(=C2/C=CC=CN2C)SC1=S` the “hERG current change (%, negative = inhibition) at 10uM” value was -39.2%.
For `NS(=O)(=O)c1ccc2ccccc2c1`, the “hERG current change (%, negative = inhibition) at 10uM” value was 4.97%.
For `CC1CN(CCCOc2ccccc2[N+](=O)[O-])CC(C)O1.O=C(O)C(=O)O` (centres unmarked), the “hERG current change (%, negative = inhibition) at 10uM” value was -12.8%.
With `COC(CNC(=O)c1cc(C(=O)c2c(-c3c(Cl)cccc3Cl)noc2C)c[nH]1)OC` the “hERG current change (%, negative = inhibition) at 10uM” value was -0.567%.
